Measurements published in the supplement of paper PMC8728848.
This is one part of the list.

Legend:
Assay in all cases: glycan array binding signal (z-score within array); higher = stronger binding
Details in all cases: glycan notation: IUPAC condensed, linker removed
Fuc(a1-2)Gal = target: Fuc(a1-2)Gal
Outline: (§1)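 Glycan array data were curated from 3228 arrays in the Consortium for Functional Glycomics database and kept only where the protein sequence was available. Glycan names were converted to IUPAC-condensed notation, and columns mapping to the same glycan were averaged. The binding signal is a within-array Z-score, averaged across arrays of the same protein sequence at different concentrations or buffers and across linkers. Negative Z-scores can be read as non-binding.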

Fuc(a1-2)Gal(b1-3)GalNAc = target: Fuc(a1-2)Gal(b1-3)GalNAc
Outline: as §1

[1] = target: Fuc(a1-2)Gal(b1-3)GalNAc(a1-3)[Fuc(a1-2)]Gal(b1-4)Glc
Outline: as §1

[2] = target: Fuc(a1-2)Gal(b1-3)GalNAc(a1-3)[Fuc(a1-2)]Gal(b1-4)GlcNAc
Outline: as §1

[3] = target: Fuc(a1-2)Gal(b1-3)GalNAc(b1-3)Gal
Outline: as §1

[4] = target: Fuc(a1-2)Gal(b1-3)GalNAc(b1-3)Gal(a1-4)Gal(b1-4)Glc
Outline: as §1

[5] = target: Fuc(a1-2)Gal(b1-3)GalNAc(b1-4)[Neu5Ac(a2-3)]Gal(b1-4)Glc
Outline: as §1

Fuc(a1-2)Gal(b1-3)GlcNAc = target: Fuc(a1-2)Gal(b1-3)GlcNAc
Outline: as §1

[6] = target: Fuc(a1-2)Gal(b1-3)GlcNAc(b1-2)Man(a1-3)[Fuc(a1-2)Gal(b1-3)GlcNAc(b1-2)Man(a1-6)]Man(b1-4)GlcNAc(b1-4)GlcNAc
Outline: as §1

[7] = target: Fuc(a1-2)Gal(b1-3)GlcNAc(b1-2)Man(a1-3)[Fuc(a1-2)Gal(b1-3)GlcNAc(b1-2)Man(a1-6)]Man(b1-4)GlcNAc(b1-4)[Fuc(a1-6)]GlcNAc
Outline: as §1

[8] = target: Fuc(a1-2)Gal(b1-3)GlcNAc(b1-3)Gal(b1-4)Glc
Outline: as §1

[9] = target: Fuc(a1-2)Gal(b1-3)GlcNAc(b1-3)GalNAc
Outline: as §1

[10] = target: Fuc(a1-2)Gal(b1-3)GlcNAc(b1-3)[Fuc(a1-2)Gal(b1-3)GlcNAc(b1-6)]GalNAc
Outline: as §1

[11] = target: Fuc(a1-2)Gal(b1-3)GlcNAc(b1-3)[Gal(b1-4)GlcNAc(b1-6)]Gal(b1-4)Glc
Outline: as §1

[12] = target: Fuc(a1-2)Gal(b1-3)GlcNAc(b1-3)[Neu5Ac(a2-6)Gal(b1-4)GlcNAc(b1-6)]Gal(b1-4)Glc
Outline: as §1

[13] = target: Fuc(a1-2)Gal(b1-3)GlcNAc6S
Outline: as §1

[14] = target: Fuc(a1-2)Gal(b1-3)[Fuc(a1-4)]GlcNAc
Outline: as §1

[15] = target: Fuc(a1-2)Gal(b1-3)[Fuc(a1-4)]GlcNAc(b1-2)Man(a1-3)[Fuc(a1-2)Gal(b1-3)[Fuc(a1-4)]GlcNAc(b1-2)Man(a1-3)]Man(b1-4)GlcNAc(b1-4)GlcNAc
Outline: as §1

[16] = target: Fuc(a1-2)Gal(b1-3)[Fuc(a1-4)]GlcNAc(b1-2)Man(a1-3)[Fuc(a1-2)Gal(b1-3)[Fuc(a1-4)]GlcNAc(b1-2)Man(a1-6)]Man(b1-4)GlcNAc(b1-4)[Fuc(a1-6)]GlcNAc(b1-4)[Fuc(a1-6)]GlcNAc
Outline: as §1

[17] = target: Fuc(a1-2)Gal(b1-3)[Fuc(a1-4)]GlcNAc(b1-3)[Fuc(a1-3)[Gal(b1-4)]GlcNAc(b1-6)]Gal(b1-4)Glc
Outline: as §1

[18] = target: Fuc(a1-2)Gal(b1-3)[Fuc(a1-4)]GlcNAc(b1-3)[Gal(b1-4)GlcNAc(b1-6)]Gal(b1-4)Glc
Outline: as §1

Fuc(a1-2)Gal(b1-4)Glc = target: Fuc(a1-2)Gal(b1-4)Glc
Outline: as §1

Fuc(a1-2)Gal(b1-4)Glc6S = target: Fuc(a1-2)Gal(b1-4)Glc6S
Outline: as §1

Fuc(a1-2)Gal(b1-4)GlcNAc = target: Fuc(a1-2)Gal(b1-4)GlcNAc
Outline: as §1

[19] = target: Fuc(a1-2)Gal(b1-4)GlcNAc(b1-2)Man
Outline: as §1

[20] = target: Fuc(a1-2)Gal(b1-4)GlcNAc(b1-2)Man(a1-3)[Fuc(a1-2)Gal(b1-4)GlcNAc(b1-2)Man(a1-6)]Man(b1-4)GlcNAc(b1-4)GlcNAc
Outline: as §1

[21] = target: Fuc(a1-2)Gal(b1-4)GlcNAc(b1-2)Man(a1-3)[Fuc(a1-2)Gal(b1-4)GlcNAc(b1-2)Man(a1-6)]Man(b1-4)GlcNAc(b1-4)[Fuc(a1-6)]GlcNAc
Outline: as §1

[22] = target: Fuc(a1-2)Gal(b1-4)GlcNAc(b1-2)[Fuc(a1-2)Gal(b1-4)GlcNAc(b1-4)]Man(a1-3)[Fuc(a1-2)Gal(b1-4)GlcNAc(b1-2)Man(a1-6)]Man(b1-4)GlcNAc(b1-4)GlcNAc
Outline: as §1

[23] = target: Fuc(a1-2)Gal(b1-4)GlcNAc(b1-3)Gal(b1-4)GlcNAc
Outline: as §1

[24] = target: Fuc(a1-2)Gal(b1-4)GlcNAc(b1-3)Gal(b1-4)GlcNAc(b1-2)Man(a1-3)[Fuc(a1-2)Gal(b1-4)GlcNAc(b1-3)Gal(b1-4)GlcNAc(b1-2)Man(a1-6)]Man(b1-4)GlcNAc(b1-4)GlcNAc
Outline: as §1

[25] = target: Fuc(a1-2)Gal(b1-4)GlcNAc(b1-3)Gal(b1-4)GlcNAc(b1-3)Gal(b1-4)GlcNAc
Outline: as §1

[26] = target: Fuc(a1-2)Gal(b1-4)GlcNAc(b1-3)GalNAc
Outline: as §1

[27] = target: Fuc(a1-2)Gal(b1-4)GlcNAc(b1-3)[Fuc(a1-2)Gal(b1-4)GlcNAc(b1-6)]GalNAc
Outline: as §1

[28] = target: Fuc(a1-2)Gal(b1-4)GlcNAc(b1-3)[Fuc(a1-3)[Gal(b1-4)]GlcNAc(b1-6)]Gal(b1-4)Glc
Outline: as §1

[29] = target: Fuc(a1-2)Gal(b1-4)GlcNAc(b1-6)GalNAc
Outline: as §1

[30] = target: Fuc(a1-2)Gal(b1-4)GlcNAc6S
Outline: as §1

[31] = target: Fuc(a1-2)Gal(b1-4)[Fuc(a1-3)]GlcNAc
Outline: as §1

[32] = target: Fuc(a1-2)Gal(b1-4)[Fuc(a1-3)]GlcNAc(b1-2)Man(a1-3)[Fuc(a1-2)Gal(b1-4)[Fuc(a1-3)]GlcNAc(b1-2)Man(a1-6)]Man(b1-4)GlcNAc(b1-4)[Fuc(a1-6)]GlcNAc
Outline: as §1

[33] = target: Fuc(a1-2)Gal(b1-4)[Fuc(a1-3)]GlcNAc(b1-2)[Fuc(a1-2)Gal(b1-4)[Fuc(a1-3)]GlcNAc(b1-4)]Man(a1-3)[Fuc(a1-2)Gal(b1-4)[Fuc(a1-3)]GlcNAc(b1-2)Man(a1-6)]Man(b1-4)GlcNAc(b1-4)GlcNAc
Outline: as §1

[34] = target: Fuc(a1-2)Gal(b1-4)[Fuc(a1-3)]GlcNAc(b1-3)Gal(b1-4)[Fuc(a1-3)]GlcNAc
Outline: as §1

[35] = target: Fuc(a1-2)Gal(b1-4)[Fuc(a1-3)]GlcNAc(b1-3)Gal(b1-4)[Fuc(a1-3)]GlcNAc(b1-3)Gal(b1-4)[Fuc(a1-3)]GlcNAc
Outline: as §1

[36] = target: Fuc(a1-2)Gal(b1-4)[Fuc(a1-3)]GlcNAc(b1-3)GalNAc
Outline: as §1

[37] = target: Fuc(a1-2)Gal(b1-4)[Fuc(a1-3)]GlcNAc(b1-3)[Neu5Ac(a2-6)Gal(b1-4)GlcNAc(b1-6)]Gal(b1-4)Glc
Outline: as §1

[38] = target: Fuc(a1-2)Gal3S(b1-4)GlcNAc
Outline: as §1

[39] = target: Fuc(a1-2)Gal6S(b1-3)GlcNAc
Outline: as §1

B1: PX9961J-bvu-499-24-499 (Bacteroides vulgatus) (protein)
chain: LNTDPSTAVPSDDAIKNIDDAQVALNGIYRLASAHSYYGDNYLYYADCRGEDVQARINKGAGRRVSPYYFFDVTADDNFNITLVWNQPYKVIHQANSLIEKLDAGNAGNARPEEVARIKSEALAMRGLALFDLTRLFGMPYTLDNGASLGVPIEIQTTLEDHAPERNTVAQCYEQVLKDLNDALGGLTKEKHDAYMNYWSVKALLSRVYLYMNDNENALKCAEEVINDNGGIYRLFTHDEYPSVWGKDFNSESLFEFYFTMSEPSGGSGGEGAPMVYADNVKDWNNLILTKAYLDLLNEDPEDVRHVFPHLPENAVADTLPVAAKGQPKYLIKYPGKSGSVTDAVSTVNPQDNDLCILRLSEVYLNAAEAAFKIGNTEKALTYLNAIVTRANPAKSVTSADLSLERILKERRKELVGEGHAFFDYMRNGKSVDRSGGWHLTMPEDARVIAPSDPRVALPIPQTEIDANPNIVQNPR
glycan array binding signal (z-score) (Fuc(a1-2)Gal): 0.069 | glycan array binding signal (z-score) (Fuc(a1-2)Gal(b1-3)GalNAc): -0.212 | glycan array binding signal (z-score) [1]: -0.253 | glycan array binding signal (z-score) [2]: 0.315 | glycan array binding signal (z-score) [3]: -0.622 | glycan array binding signal (z-score) [4]: -0.372 | glycan array binding signal (z-score) [5]: 0.001 | glycan array binding signal (z-score) (Fuc(a1-2)Gal(b1-3)GlcNAc): 1 | glycan array binding signal (z-score) [6]: 0.386 | glycan array binding signal (z-score) [7]: 0.145 | glycan array binding signal (z-score) [8]: -0.355 | glycan array binding signal (z-score) [9]: -0.096 | glycan array binding signal (z-score) [10]: 1.22 | glycan array binding signal (z-score) [11]: -0.465 | glycan array binding signal (z-score) [12]: -0.281 | glycan array binding signal (z-score) [13]: -0.102 | glycan array binding signal (z-score) [14]: -0.771 | glycan array binding signal (z-score) [15]: -0.116 | glycan array binding signal (z-score) [16]: 0.172 | glycan array binding signal (z-score) [17]: -0.715 | glycan array binding signal (z-score) [18]: 0.144 | glycan array binding signal (z-score) (Fuc(a1-2)Gal(b1-4)Glc): 0.008 | glycan array binding signal (z-score) (Fuc(a1-2)Gal(b1-4)Glc6S): -0.261 | glycan array binding signal (z-score) (Fuc(a1-2)Gal(b1-4)GlcNAc): -0.538 | glycan array binding signal (z-score) [19]: -0.398 | glycan array binding signal (z-score) [20]: 0.383 | glycan array binding signal (z-score) [21]: -0.244 | glycan array binding signal (z-score) [22]: -0.696 | glycan array binding signal (z-score) [23]: -0.607 | glycan array binding signal (z-score) [24]: 0.242 | glycan array binding signal (z-score) [25]: -0.559 | glycan array binding signal (z-score) [26]: -0.323 | glycan array binding signal (z-score) [27]: 0.343 | glycan array binding signal (z-score) [28]: -0.358 | glycan array binding signal (z-score) [29]: 0.475 | glycan array binding signal (z-score) [30]: 0.163 | glycan array binding signal (z-score) [31]: 0.154 | glycan array binding signal (z-score) [32]: 0.234 | glycan array binding signal (z-score) [33]: 0.434 | glycan array binding signal (z-score) [34]: 0.511 | glycan array binding signal (z-score) [35]: 1.49 | glycan array binding signal (z-score) [36]: 2.06 | glycan array binding signal (z-score) [37]: -0.422 | glycan array binding signal (z-score) [38]: -0.03 | glycan array binding signal (z-score) [39]: 0.159
